Results: the BET-seq Pho4 binding data (Le et al. 2018)
The list shows a part of the results. Values were computed here from the reads of four pooled replicates and scatter widely.

target: T1, Pho4 (S. cerevisiae) (UniProt P07270); assay: relative binding free energy (BET-seq); higher = weaker binding; details: reference: library average
T1 sequence: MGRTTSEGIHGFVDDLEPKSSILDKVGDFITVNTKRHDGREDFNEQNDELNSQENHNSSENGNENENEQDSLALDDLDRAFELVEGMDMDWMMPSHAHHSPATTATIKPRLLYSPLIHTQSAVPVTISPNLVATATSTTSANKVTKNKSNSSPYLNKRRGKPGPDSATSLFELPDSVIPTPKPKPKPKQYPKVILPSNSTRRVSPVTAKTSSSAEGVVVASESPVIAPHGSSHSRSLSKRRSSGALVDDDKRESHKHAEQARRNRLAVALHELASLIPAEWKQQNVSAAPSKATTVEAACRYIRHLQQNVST

Row | Sequence | relative binding free energy [kcal/mol]
1 | TTGGGCACGTGGAAAG | 0.08
2 | AGCGGCACGTGGGCTT | -0.29
3 | GTCTTCACGTGATTGA | 0.4
4 | GTCGGCACGTGGTCGG | -0.08
5 | CTGGGCACGTGTTGTC | 0
6 | ATATGCACGTGATGAT | 0.12
7 | TAGTTCACGTGAATCG | 0.31
8 | AAGTGCACGTGTGAGG | 0.14
9 | TGTACCACGTGTCGTG | 0.04
10 | CGTAACACGTGGATTG | 0.07
11 | CGTGGCACGTGGGGTA | -0.17
12 | ATAATCACGTGTCGTG | 0.19
13 | TAAGACACGTGAGTGG | 0.28
14 | AAGTACACGTGAATGT | 0.22
15 | TCCTTCACGTGAGTGG | 0.41
16 | TGGTACACGTGCGGGT | 0.02
17 | AAGCTCACGTGCGGGG | 0.22
18 | CAAGGCACGTGTGCGG | -0.14
19 | TGGGACACGTGGGTCA | -0.01
20 | GGATTCACGTGTGCTG | 0.28
21 | TCGTTCACGTGAGTAT | 0.41
22 | ATCTGCACGTGTAGGG | 0.02
23 | GTTAACACGTGGTAGT | 0.04

Row | Sequence | relative binding free energy [kcal/mol]
24 | AGTTGCACGTGTATTA | -0.05
25 | TTGACCACGTGAGTTT | 0.3
26 | CTTGTCACGTGCGGAG | 0.03
27 | ATTGGCACGTGCGTGC | -0.29
28 | GAATTCACGTGGGTAT | 0.26
29 | TTCGGCACGTGAGGCT | 0.13
30 | TGTAACACGTGGACTG | 0.01
31 | GATGGCACGTGTATAG | -0.01
32 | CTTGTCACGTGGGTCT | -0.09
33 | GCTAGCACGTGAGTAG | 0.36
34 | AGCTGCACGTGCGTGG | -0.11
35 | ATTCTCACGTGGCGTG | 0.14
36 | GTGAGCACGTGTGAGT | -0.04
37 | CTGTGCACGTGGTGGG | -0.13
38 | TTGTTCACGTGTTCTT | 0.28
39 | ACGTTCACGTGTTCGT | 0.2
40 | CGTGGCACGTGAAGGT | 0.09
41 | GTTGTCACGTGAGTAG | 0.39
42 | GTTGGCACGTGATTCT | 0.05
43 | AATCACACGTGTTGTG | 0.13
44 | GGCAACACGTGCGGGG | 0.02
45 | GGGAGCACGTGAGATG | 0.38
46 | TTTAACACGTGAATAT | 0.26

Row | Sequence | relative binding free energy [kcal/mol]
47 | GGTATCACGTGCGATG | 0.14
48 | TGACACACGTGTGGGG | 0.06
49 | GGTGTCACGTGCTTGA | -0.03
50 | TTGGGCACGTGCGACG | -0.1
51 | CGAGGCACGTGTGCTT | -0.08
52 | TATAACACGTGGTGTA | -0.18
53 | TGACGCACGTGGGGAT | -0.21
54 | CCATGCACGTGGGGGT | -0.16
55 | CGGGGCACGTGATCGG | -0.17
56 | GGCTGCACGTGTCTGG | 0.11
57 | GGCGCCACGTGATGGG | -0.01
58 | AATGACACGTGTGTGT | -0.03
59 | AGTGACACGTGTTAGT | 0
60 | GTTAGCACGTGATGGG | 0.26
61 | GTCTTCACGTGGTCTT | 0.2
62 | GTTATCACGTGATTGT | 0.32
63 | ATTTGCACGTGTGCGG | 0.01
64 | ACTTGCACGTGATGTA | 0.04
65 | ATGTTCACGTGGCTGG | 0.2
66 | ATGTGCACGTGTTGGG | -0.06
67 | GGTATCACGTGGCGTT | 0.04
68 | GAGTTCACGTGAAAGG | 0.4
69 | GTTTACACGTGTAGTT | 0.25

Row | Sequence | relative binding free energy [kcal/mol]
70 | CGTATCACGTGTCGGG | 0.18
71 | CGTGACACGTGACGGG | 0.18
72 | AGCGTCACGTGTTGGT | 0.22
73 | CAGGGCACGTGGGCTA | -0.24
74 | GTTGGCACGTGGACTG | -0.07
75 | TAGGTCACGTGGTCCT | 0.08
76 | AATGACACGTGGATTT | 0.06
77 | AAGGGCACGTGATCGG | -0.26
78 | TGAATCACGTGGGGCA | 0.02
79 | GGCTGCACGTGGGGTC | -0.23
80 | GTGGGCACGTGACAGG | -0.02
81 | CGGATCACGTGTCGGG | 0.21
82 | ATGTCCACGTGAGGGA | 0.23
83 | TATGTCACGTGATGGA | 0.12
84 | GGGAGCACGTGAGTGA | 0.18
85 | GTATTCACGTGTAGCG | 0.21
86 | AATGACACGTGGAGTA | 0.12
87 | GTTATCACGTGTGTTA | 0.14
88 | CAAATCACGTGTAGGT | 0.17
89 | GGAAGCACGTGAGTTT | 0.14
90 | GGAGTCACGTGAGGCA | 0.2
91 | TTTTGCACGTGCGTTC | -0.04
92 | GGTGCCACGTGTACTG | 0.07

Row | Sequence | relative binding free energy [kcal/mol]
93 | GTTGGCACGTGTTCTT | -0.13
94 | TAATGCACGTGTTCGA | 0.05
95 | CGGCGCACGTGGTGGT | -0.22
96 | GGTGACACGTGGTGGA | 0.05
97 | GCTTACACGTGTGTGT | 0.23
98 | TTCTTCACGTGGTGCG | 0.12
99 | TCATTCACGTGAGTTG | 0.35
100 | TTAAACACGTGATTTA | 0.03
101 | GGCGTCACGTGAATGG | 0.31
102 | GATGTCACGTGAGGAG | 0.31
103 | TGTCGCACGTGACGTG | 0.04
104 | GTGGGCACGTGTGTGC | -0.11
105 | TGTGCCACGTGGGCGT | -0.21
106 | ATTTTCACGTGTTATT | 0.23
107 | GGTTACACGTGATAAT | 0.21
108 | TTGGACACGTGGGCGG | -0.18
109 | TGTGGCACGTGAGCTG | 0.04
110 | TGGGTCACGTGGCGGC | 0.1
111 | AGGATCACGTGGTCGA | 0.02
112 | GTACGCACGTGTTTGA | -0.01
113 | TGAAACACGTGACGGG | 0.14
114 | GCGATCACGTGGTGTT | 0.22
115 | AATTACACGTGGGGTA | -0.15
